From paper PMC7558026, “Exploring and applying the substrate promiscuity of a C-glycosyltransferase in the chemo-enzymatic synthesis of bioactive C-glycosides” (Nature Communications, 2020)

Assays:
Format in all cases: biochemical, Aloe barbadensis
AbCGT V183P = target: T1, AbCGT V183P (Aloe vera, UniProt A0A7G9P699, V183P)
T1 sequence (A0A7G9P699 1-470 V183P): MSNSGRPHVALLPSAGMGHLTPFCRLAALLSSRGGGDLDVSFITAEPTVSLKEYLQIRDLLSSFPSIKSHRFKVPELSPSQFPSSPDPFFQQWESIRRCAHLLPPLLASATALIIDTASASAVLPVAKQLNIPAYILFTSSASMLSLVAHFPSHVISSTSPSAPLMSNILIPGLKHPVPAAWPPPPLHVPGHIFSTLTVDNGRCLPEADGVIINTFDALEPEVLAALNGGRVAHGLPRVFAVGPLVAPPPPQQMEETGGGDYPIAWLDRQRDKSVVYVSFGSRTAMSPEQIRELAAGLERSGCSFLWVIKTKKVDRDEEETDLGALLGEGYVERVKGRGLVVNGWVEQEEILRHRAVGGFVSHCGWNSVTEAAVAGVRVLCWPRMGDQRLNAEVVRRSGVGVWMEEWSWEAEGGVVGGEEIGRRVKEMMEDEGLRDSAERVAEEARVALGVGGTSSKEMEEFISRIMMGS
Description: (§1) The reaction mixture contained 0.5 mM sugar donors (1.0 mM for di-glycosylation), 0.25 mM aglycons, 50 mM Tris-HCl (pH 7.4), and 50‒100 μg of purified AbCGT in a final volume of 100 μL. Due to the instability of some acceptors in the buffer of pH 11.0, the reactions were performed under the physiological conditions (pH 7.4, 30 °C) to compare the catalytic activities of AbGT27 with different substrates under the same conditions. The reactions were performed at 30 °C for up to 12 h and terminated by the addition of 200 μL of ice-cold methanol. Subsequently, samples were centrifuged at 15,000 × g for 30 min to collect the supernatant, and aliquots were analyzed by HPLC-UV/ESIMS. HPLC analysis was performed on a Shiseido CAPCELL PAK C18 MG III column (250 mm × 4.6 mm I.D., 5 μm, Shiseido Co., Ltd., Japan) at a flow rate of 1 mL min^‒1. The mobile phase was a gradient elution of solvents A (0.1% formic acid aqueous solution) and B (methanol). The gradient programs were used for the analysis of the reactions (Supplementary Table 6). The conversion rates of the enzyme reactions were calculated from peak areas of glycosylated products and substrates as analyzed by HPLC. To facilitate inferential statistical analysis, three parallel assays were routinely performed; the means ± SD from triplicate analyses are reported here.
(§2) Site-saturation mutagenesis of AbCGT at residue 183 was performed by PCR using pET28a-AbCGT as a template and the corresponding degenerate primers, which are listed in Supplementary Table 5. PCR products were purified and transformed into Trans1-T1 (DE3) E. coli. The sequences of pET28a-AbCGT mutants were confirmed by sequencing, and transformed into Transetta (DE3) E. coli for heterologous expression following protein purification.

AbCGT V183W = conditions: pH 7.4, 30 °C, 12 h, Reaction-1 to -3
Description: as §1, §2

AbCGT V183Y = conditions: pH 7.4, 30 °C, 12 h, Reaction-1 to -3
Description: as §1, §2

AbCGT V183K = conditions: pH 7.4, 30 °C, 12 h, Reaction-1 to -3
Description: as §1, §2

AbCGT V183S = conditions: pH 7.4, 30 °C, 12 h, Reaction-1 to -3
Description: as §1, §2

AbCGT V183H = conditions: pH 7.4, 30 °C, 12 h, Reaction-1 to -3
Description: as §1, §2

AbCGT V183F = conditions: pH 7.4, 30 °C, 12 h, Reaction-1 to -3
Description: as §1, §2

AbCGT V183A = conditions: pH 7.4, 30 °C, 12 h, Reaction-1 to -3
Description: as §1, §2

AbCGT V183T = conditions: pH 7.4, 30 °C, 12 h, Reaction-1 to -3
Description: as §1, §2

AbCGT V183G = conditions: pH 7.4, 30 °C, 12 h, Reaction-1 to -3
Description: as §1, §2

AbCGT V183I = conditions: pH 7.4, 30 °C, 12 h, Reaction-1 to -3
Description: as §1, §2

[1] = substrate: O=C1C[C@@](O)(c2ccc(O)cc2)Oc2cc(O)cc(O)c21; experiment: Kinetic parameters of AbCGT variant V183P; conditions: other: V183P, UDP-Glc as donor; pH 7.4; 30.0 °C
Description: Assays were performed in a final volume of 100 μL 50 mM Tris-HCl (pH 7.4) at 30 °C, and contained purified recombinant AbCGT (1.5 μg) and saturating UDP-Glc (5 mM) while varying phloracetophene (11) and phloretin (17) concentrations (5–500 μM), respectively. The reactions terminated by the addition of 200 μL of ice-cold methanol. Subsequently, samples were centrifuged at 15,000 × g for 30 min to collect the supernatant, and aliquots were analyzed by HPLC as described above. All experiments were performed in triplicate. The value of Km was calculated with the method of Lineweaver–Burk plot.
as §2

[2] = V183P, pH 7.4, 30 °C, 12 h, Reaction-1 to -3

Molecule: CC(=O)c1c(O)cc(C)cc1O [Compound 7]
- V183P/yield of C-glycoside(%) (AbCGT V183P; reaction-1): 4.7%
- V183P/yield of O-glycoside(%) (AbCGT V183P; reaction-1): 1%
- V183P/yield of C-glycoside(%) (AbCGT V183P; reaction-2): 6%
- V183P/yield of O-glycoside(%) (AbCGT V183P; reaction-2): 0.8%
- V183P/yield of C-glycoside(%) (AbCGT V183P; reaction-3): 4.4%
- V183P/yield of O-glycoside(%) (AbCGT V183P; reaction-3): 1.3%

Molecule: COc1cc(O)c(C(C)=O)c(O)c1 [Compound 13]
- V183P/yield of C-glycoside(%) (AbCGT V183P; reaction-1): 10.8%
- V183P/yield of O-glycoside(%) (AbCGT V183P; reaction-1): 0%
- V183P/yield of C-glycoside(%) (AbCGT V183P; reaction-2): 11.3%
- V183P/yield of O-glycoside(%) (AbCGT V183P; reaction-2): 0%
- V183P/yield of C-glycoside(%) (AbCGT V183P; reaction-3): 10.8%
- V183P/yield of O-glycoside(%) (AbCGT V183P; reaction-3): 0%

Molecule: COc1cc(O)c(C(C)=O)c(OC)c1 [Compound 14]
- V183P/yield of C-glycoside(%) (AbCGT V183P; reaction-1): 0%
- V183P/yield of O-glycoside(%) (AbCGT V183P; reaction-1): 0%
- V183P/yield of C-glycoside(%) (AbCGT V183P; reaction-2): 0%
- V183P/yield of O-glycoside(%) (AbCGT V183P; reaction-2): 0%
- V183P/yield of C-glycoside(%) (AbCGT V183P; reaction-3): 0%
- V183P/yield of O-glycoside(%) (AbCGT V183P; reaction-3): 0%

Molecule: Oc1cc(O)cc(OCCCCCCc2ccccc2)c1 [Compound 22]
- V183P/yield of C-glycoside(%) (AbCGT V183P; reaction-1): 0%
- V183P/yield of O-glycoside(%) (AbCGT V183P; reaction-1): 0%
- V183P/yield of C-glycoside(%) (AbCGT V183P; reaction-2): 0%
- V183P/yield of O-glycoside(%) (AbCGT V183P; reaction-2): 0%
- V183P/yield of C-glycoside(%) (AbCGT V183P; reaction-3): 0%
- V183P/yield of O-glycoside(%) (AbCGT V183P; reaction-3): 0%

Molecule: O=C1CC(O)(c2ccc(O)cc2)Oc2cc(O)cc(O)c21 (centres unmarked) [Compound 23, 2-hydroxynaringenin]
- conversion rates of 2-hydroxynaringenin, C-glycosylation (AbCGT V183W): 85.6% and 83.9% and 85.1%
- conversion rates of 2-hydroxynaringenin, O-glycosylation (AbCGT V183W): 14.4% and 16.1% and 14.9%
- conversion rates of 2-hydroxynaringenin, C-glycosylation (AbCGT V183Y): 80.8% and 82% and 82.9%
- conversion rates of 2-hydroxynaringenin, O-glycosylation (AbCGT V183Y): 19.2% and 18% and 17.1%
- conversion rates of 2-hydroxynaringenin, C-glycosylation (AbCGT V183K): 96.4% and 95.9% and 95%
- conversion rates of 2-hydroxynaringenin, O-glycosylation (AbCGT V183K): 3.6% and 4.1% and 5%
- conversion rates of 2-hydroxynaringenin, C-glycosylation (AbCGT V183S): 89.4% and 91.2% and 86.4%
- conversion rates of 2-hydroxynaringenin, O-glycosylation (AbCGT V183S): 10.6% and 8.8% and 13.6%
- conversion rates of 2-hydroxynaringenin, C-glycosylation (AbCGT V183H): 91.6% and 90.2% and 88%
- conversion rates of 2-hydroxynaringenin, O-glycosylation (AbCGT V183H): 8.4% and 9.8% and 12%
- conversion rates of 2-hydroxynaringenin, C-glycosylation (AbCGT V183F): 86.9% and 84.7%
- conversion rates of 2-hydroxynaringenin, O-glycosylation (AbCGT V183F): 13.1% and 15.3%
- conversion rates of 2-hydroxynaringenin, C-glycosylation (AbCGT V183A): 84.8% and 86.1% and 84%
- conversion rates of 2-hydroxynaringenin, O-glycosylation (AbCGT V183A): 15.2% and 13.9% and 16%
- conversion rates of 2-hydroxynaringenin, C-glycosylation (AbCGT V183P; [2]): 99.7% and 99.5%
- conversion rates of 2-hydroxynaringenin, O-glycosylation (AbCGT V183P; [2]): 0.3% and 0.5%
- V183P/yield of C-glycoside(%) (AbCGT V183P; reaction-1): 99.6%
- V183P/yield of O-glycoside(%) (AbCGT V183P; reaction-1): 0.4%
- V183P/yield of C-glycoside(%) (AbCGT V183P; reaction-2): 99.5%
- V183P/yield of O-glycoside(%) (AbCGT V183P; reaction-2): 0.5%
- V183P/yield of C-glycoside(%) (AbCGT V183P; reaction-3): 99.3%
- V183P/yield of O-glycoside(%) (AbCGT V183P; reaction-3): 0.7%
- conversion rates of 2-hydroxynaringenin, C-glycosylation (AbCGT V183T): 86.9% and 88.8% and 84.9%
- conversion rates of 2-hydroxynaringenin, O-glycosylation (AbCGT V183T): 13.1% and 11.2% and 15.1%
- conversion rates of 2-hydroxynaringenin, C-glycosylation (AbCGT V183G): 95% and 95.3% and 94.4%
- conversion rates of 2-hydroxynaringenin, O-glycosylation (AbCGT V183G): 5% and 4.7% and 5.6%
- conversion rates of 2-hydroxynaringenin, C-glycosylation (AbCGT V183I): 84.1% and 81.8% and 80.1%
- conversion rates of 2-hydroxynaringenin, O-glycosylation (AbCGT V183I): 15.9% and 18.2% and 19.9%

B1: AbCGT V183P (Aloe vera; V183P) (protein)
chain: T1 sequence (A0A7G9P699 1-470 V183P)
- Km [1]: 316.4 ± 20.9 µM

“And” between values parts separate entries of the source, which are not always exact repeats. Equal values may be shown once. Read-outs that look alike come from different tables or passages of the source.
